# Measured values reported in PubChem BioAssay AID1240 (Sanford-Burnham Center for Chemical Genomics, 2008).
# About 800 (1.6%) of roughly 50,000 compounds showed an effect of 50% or more. The list shows a part of the results.
# Biological target: Bcl-2-like protein 10 (Homo sapiens) (UniProt Q9HD36)
# Assay: Phenotype converters, Bcl-B/TR3 peptide binding displacement, primary biochemical FP (AID 1240);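 further: 0% = Bcl-B with tracer peptide and DMSO and 100% = tracer peptide lacking Bcl-B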
# Conditions: GST-Bcl-B / FITC-TR3 peptide fluorescence polarization; stronger effect = higher value; compound at 3.75 mg/L
# Chain of UniProt Q9HD36 (Q9HD36 whole entry, looked up): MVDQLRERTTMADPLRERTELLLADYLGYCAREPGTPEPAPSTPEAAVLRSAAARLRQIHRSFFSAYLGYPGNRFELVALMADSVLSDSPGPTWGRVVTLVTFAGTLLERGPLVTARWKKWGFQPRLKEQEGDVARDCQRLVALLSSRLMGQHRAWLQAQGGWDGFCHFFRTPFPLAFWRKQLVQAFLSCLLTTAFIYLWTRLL
row,Structure (SMILES),displacement
1,Cc1cc2nc(-c3ccc(NC(=O)c4ccccc4)cc3O)oc2cc1C,6.3%
2,CCOc1cc(C2C3=C(CC(C)(C)CC3=O)NC3=C2C(=O)CC(C)(C)C3)cc(Br)c1OC,7.7%
3,COC(=O)c1ccc(NS(=O)(=O)c2ccc(OC)cc2)cc1,16.4%
4,O=C(NC(=S)Nc1ccc(-c2nc3cc(Cl)ccc3o2)cc1)c1ccco1,17%
5,CN(C)c1ccc(C2=NN(c3ccc(C=O)cc3)C(c3ccccc3)C2)cc1 (stereo not drawn),16.7%
6,C=CCN1C(=O)CS/C1=N\S(=O)(=O)c1ccc([N+](=O)[O-])cc1,-0.8%
7,CCOC(=O)c1c(NC(=S)Nc2ccccc2)sc2c1CCN(CCc1ccccc1)C2,-66.8%
8,COC(=O)c1ccccc1NS(=O)(=O)c1c(C)cc(C)cc1C,1.6%
9,Cn1c(-n2c(CCN3C(=O)c4ccccc4C3=O)nc3ccccc3c2=O)nc2ccccc21,66.3%
10,Cc1cccc(-n2c(-c3ccccc3)nc3c(cnn3-c3ccccc3)c2=O)c1,-8.1%
11,CCOc1ccc(N2C(=O)CC(Sc3ccccc3C(=O)O)C2=O)cc1 (stereo not drawn),-0.2%
12,O=C(NC(NC(=S)Nc1ccccc1)C(Cl)(Cl)Cl)c1ccccc1F (stereo not drawn),12.2%
13,COCCNC(=O)c1cnn2c(C(F)(F)F)cc(-c3ccco3)nc12,-1.9%
14,O=C1C(=O)N(Cc2cccnc2)C(c2ccc3c(c2)OCO3)/C1=C(\O)c1ccccc1 (stereo not drawn),0.4%
15,O=C(Nc1ccc2oc(-c3ccc(F)cc3Cl)nc2c1)c1cc2ccccc2o1,10.9%
16,COc1ccccc1NC(=O)c1c(Cl)cccc1Cl,3.6%
17,Cc1cccc(N2C(=O)c3ccc(-c4ccc5c(c4)C(=O)N(c4cccc(C)c4)C5=O)cc3C2=O)c1,6.7%
18,Cn1c(=O)c2c(ncn2CN2C(=O)c3ccccc3C2=O)n(C)c1=O,26.3%
19,Clc1ccc(/C=N/Nc2nnc3c(n2)[nH]c2ccc(Br)cc23)c(Cl)c1,-4.2%
20,CCOC(=O)c1c(C)sc(Sc2ccc(Cl)cc2[N+](=O)[O-])c1OC,-2.2%
21,O=C1CC(N2CCN(Cc3ccc4c(c3)OCO4)CC2)C(=O)N1CCc1ccccc1 (stereo not drawn),3.1%
22,CC(C)(C)c1ccc(OCC(=O)Nc2ccc(NC(=O)c3ccco3)c(Cl)c2)cc1,2.7%

row,Structure (SMILES),displacement
1,COc1ccc(CCNC(=O)Cc2ccc(Cl)cc2)cc1,-8.1%
2,O=C(Nc1ccc(Cl)cc1)Nc1ccc(F)c(Cl)c1,1%
3,CCOC(=O)C1=C(N)Oc2cc(O)ccc2C1c1ccc([N+](=O)[O-])cc1 (stereo not drawn),-10.4%
4,CCN(CC)c1ccc(C(=O)Nc2ccncc2)cc1,3.9%
5,CN(CCO)C(=O)c1c(NC(=O)c2ccccc2)sc2c1CCCC2,-5.3%
6,COc1cc(/C=N/N2CCN(Cc3ccc(C)cc3)CC2)cc(OC)c1O,23.9%
7,Cc1nnc(NC(=O)COC(=O)c2ccc([N+](=O)[O-])cc2)s1,1.7%
8,CN1C(=O)N(C)C2(c3ccccc3)N(N)C(N)=NC12c1ccccc1 (stereo not drawn),2.5%
9,CCOC(=O)C1=C(C)N=C2SCC(=O)N2C1c1ccc(C)cc1 (stereo not drawn),0%
10,O=C(Nc1ccc(Br)cn1)c1ccc(Oc2ccccc2)cc1,-9.1%
11,Cn1c(=O)c(-c2nc3ccccc3c(=O)[nH]2)c(O)c2ccccc21,-3.3%
12,COc1cc(N/N=C/c2ccncc2)ncn1,-5.1%
13,COc1cccc(N2C(=O)C=CC2=O)c1,8.2%
14,Cc1ccc(Cl)cc1NC(=O)C(=O)NCc1ccco1,-13.4%
15,O=C(COc1cc(Cl)c(Cl)cc1Cl)N/N=C/c1cccnc1,10.4%
16,COC(=O)CN(c1cc(OC)ccc1OC)S(C)(=O)=O,6.5%
17,NS(=O)(=O)c1ccc(CCNc2ccc(C(F)(F)F)cc2[N+](=O)[O-])cc1,20.2%
18,O=C(COc1ccccc1Cl)NCCc1nc2ccccc2[nH]1,-1.2%
19,O=C(Nc1ccncc1)C12CC3CC(CC(C3)C1)C2,4.4%
20,Clc1cccc(NCc2ccncc2)c1,11.3%
21,C=CCn1c(SCCC)nc2sc3c(c2c1=O)CCc1ccccc1-3,0.4%
22,O=C(N/N=C\c1cc(O)c(Br)cc1Br)c1ccc(Br)cc1,-0.6%

row,Structure (SMILES),displacement
1,O=C1C(=O)N(CC2CCCO2)C(c2cccc(F)c2)/C1=C(/O)c1ccccc1 (stereo not drawn),-10.8%
2,COc1cc(C(=O)Nc2c(C)cc(C)cc2C)c([N+](=O)[O-])cc1OC,10.6%
3,COC(=O)c1cc(C(=O)N(Cc2ccccc2)c2ccccn2)cc([N+](=O)[O-])c1,16.3%
4,Cc1cc(C)c2nc3s/c(=C\c4ccc(-c5ccc(Cl)c(C(=O)O)c5)o4)c(=O)n3c2c1,45.2%
5,CCOc1ccc(N2C(=O)S/C(=C\c3ccco3)C2=O)cc1,92.2%
6,CC(C)NCC(O)COc1ccccc1C(C)(C)C (stereo not drawn),-11.3%
7,Cc1ccc(S(=O)(=O)Nc2ccc3c(c2)ncn3C)cc1,-4.7%
8,Cc1ccsc1C=Nc1ccc(-c2ccc([N+](=O)[O-])cc2)cc1,-1.2%
9,O=C(COc1ccccc1)NC1CCC(CC2CCC(NC(=O)COc3ccccc3)CC2)CC1 (stereo not drawn),5.8%
10,Cc1cc(F)ccc1NCc1cccnc1,3.1%
11,COc1ccc2c(c1)OCC/C2=N\OC(=O)c1ccccc1F,-2.8%
12,C/C(=N\OCC(=O)N=Nc1c(O)n(CN2CCN(C)CC2)c2ccccc12)c1ccccc1,-3%
13,CCc1c(C)nc2c(Br)cccc2c1SCC(=O)O,-5.4%
14,O=C(NCCCn1ccnc1)c1cnn2c1NC(c1cccs1)CC2C(F)(F)F (stereo not drawn),-1.1%
15,O=C(O)c1ccc(S(=O)(=O)c2ccc3c(c2)C(=O)N(c2nc4ccccc4s2)C3=O)cc1,-5.7%
16,CN=CC1=C(O)C(C(=O)OC)C(C)(C)CC1=O (stereo not drawn),-0.9%
17,O=C(N/N=C\c1ccccc1C(F)(F)F)c1ccc(=O)[nH]n1,5.5%
18,O=C1C(=Cc2cc([N+](=O)[O-])ccc2O)C(=O)c2ccccc21,-8.6%
19,CCNC(=O)c1ccccc1-c1ccccc1C(=O)O,4.1%
20,Cc1ccc(/C=C(/C#N)C(=O)OC(C)C)o1,0.9%
21,COc1ccc(/C=C(\C(=O)c2ccccc2)c2nc3ccccc3s2)cc1,-3.8%
22,CCOc1ccccc1NS(=O)(=O)c1ccc(OC)cc1,-13.3%

row,Structure (SMILES),displacement
1,O=[N+]([O-])c1ccc(CN2CCN(Cc3cc(Br)ccc3O)CC2)cc1,13.7%
2,O=[N+]([O-])c1ccc2nc(-c3ccco3)[nH]c2c1,13.2%
3,COc1ccc(OC)c(C2NC(c3cc(OC)ccc3OC)C(C)C(C)(O)C2C)c1 (stereo not drawn),4.9%
4,O=C(N/N=C/c1cccnc1)/C(=C\c1cccs1)NC(=O)c1ccccc1,-9.3%
5,CCOc1ccc(N(CC(=O)Nc2ccc(C)c(Cl)c2)S(C)(=O)=O)cc1,-1.8%
6,CC1CCN(Cc2c(O)ccc3c4c(c(=O)oc23)CCC4)CC1,12.8%
7,O=C(COc1ccccc1)Nc1nc(-c2ccc(S(=O)(=O)N3CCOCC3)cc2)cs1,8.5%
8,O=C(N/C(=C/c1cccc(Br)c1)C(=O)N1CCOCC1)c1ccccc1,-1.7%
9,Cc1ccc(C(=O)N/C(=C\c2ccc(-c3cccc([N+](=O)[O-])c3)o2)C(=O)NCCCN(C)C)cc1,-16.5%
10,COc1ccc(NC(=S)N2CCC(O)(c3cccc(C(F)(F)F)c3)CC2)cc1,-4.5%
11,CCCOC(=O)C1=C(C)NC2=C(C(=O)CCC2)C1c1cc(Br)ccc1OC (stereo not drawn),-3%
12,CC1(C)Cc2ccccc2-c2nnc(-c3cccc(N)c3)n21,-9.2%
13,CCOc1cc(/C=N/NC(=O)c2cc(C34CC5CC(CC(C5)C3)C4)[nH]n2)ccc1O,-7.3%
14,c1csc(CNc2ccc(N3CCOCC3)cc2)c1,14.7%
15,CCOc1ccccc1NC(=O)c1cc2cc([N+](=O)[O-])ccc2oc1=O,11.2%
16,O=C1c2cccc3cccc(c23)C(=O)N1/N=C/c1ccccc1[N+](=O)[O-],7.2%
17,O=c1c(/C=C(\O)c2ccccc2)nc2ccccc2n1-c1ccccc1,10.8%
18,COC(=O)c1ccc(CN(c2ccccc2)S(=O)(=O)c2ccccc2)cc1,43%
19,COc1cc(/C=N/N=C(\N)c2nonc2N)ccc1O,5.1%
20,O=C(CCc1ccccc1)NCCN1CCOCC1,-5.3%
21,O=C(COc1nc2ccccc2s1)N1c2ccccc2CCc2ccccc21,-6.7%
22,CCN(CC)c1ccc(/C=C2\C(=O)NC(=S)N(c3ccc(F)cc3)C2=O)c(OC)c1,-15.2%
